The values below come from the supplement of paper PMC3334620.

In all, about 33,000 sequences were measured (“E-score (-0.5 to 0.5)”: median about -0.035, highest 2% from about 0.35 on). The list shows a part of the results.

For this assay, the target named is T1, Pdr3 (UniProt P33200).
T1 sequence: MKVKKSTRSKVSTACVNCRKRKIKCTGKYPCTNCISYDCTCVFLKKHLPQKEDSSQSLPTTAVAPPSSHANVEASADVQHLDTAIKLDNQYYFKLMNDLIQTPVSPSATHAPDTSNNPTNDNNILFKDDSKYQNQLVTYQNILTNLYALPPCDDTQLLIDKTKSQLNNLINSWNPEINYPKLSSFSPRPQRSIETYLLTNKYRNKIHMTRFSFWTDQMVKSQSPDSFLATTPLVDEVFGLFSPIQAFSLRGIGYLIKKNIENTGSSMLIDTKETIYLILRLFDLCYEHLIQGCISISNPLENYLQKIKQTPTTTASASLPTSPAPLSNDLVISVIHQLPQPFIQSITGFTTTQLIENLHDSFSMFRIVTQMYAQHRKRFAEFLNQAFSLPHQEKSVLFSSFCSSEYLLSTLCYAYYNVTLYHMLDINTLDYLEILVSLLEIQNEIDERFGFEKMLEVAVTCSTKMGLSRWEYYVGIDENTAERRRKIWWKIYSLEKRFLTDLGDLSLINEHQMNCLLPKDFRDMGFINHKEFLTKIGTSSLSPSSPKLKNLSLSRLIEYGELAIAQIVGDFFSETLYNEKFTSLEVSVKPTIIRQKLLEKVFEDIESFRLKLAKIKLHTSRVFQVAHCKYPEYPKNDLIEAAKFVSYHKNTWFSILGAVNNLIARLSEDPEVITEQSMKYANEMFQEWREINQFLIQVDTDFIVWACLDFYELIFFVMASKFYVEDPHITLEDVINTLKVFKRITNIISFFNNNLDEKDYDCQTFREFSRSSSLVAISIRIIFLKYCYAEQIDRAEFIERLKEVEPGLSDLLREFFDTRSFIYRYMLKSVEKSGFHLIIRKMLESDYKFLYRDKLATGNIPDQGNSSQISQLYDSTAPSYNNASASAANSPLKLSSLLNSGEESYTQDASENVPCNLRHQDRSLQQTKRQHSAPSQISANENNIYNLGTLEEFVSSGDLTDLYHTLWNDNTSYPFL
As to the kind of experiment: PBM E-score (8-mer binding enrichment) (E-score (-0.5 to 0.5)); higher = stronger / more preferred TF binding; most listed sequences are background and not binding sites. The settings on record: protein concentration: 200 nM; construct: GST-full length. The gist of the method:
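E-scores (a modified Wilcoxon-Mann-Whitney statistic) were assigned by the Universal PBM Analysis Suite to every ungapped eight-base word pooled with its reverse complement. The input came from universal all-10-mer Agilent arrays made double-stranded by primer extension and probed with GST-tagged yeast transcription factors at about 100-200 nM. Fluorescent anti-GST detected bound protein, and masliner normalised the scans.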
Regarding AACGGGGT, the “PBM E-score” value is 0.155. For GTAAAGAC the value was -0.08; for CACTGAGC, -0.0812; for GTGAGAAC, -0.178. In the case of AGGGATCA, the “PBM E-score” value was -0.113. Turning to ATTAATTC, the “PBM E-score” value is 0.16. Regarding AGCAACCC, the “PBM E-score” value is -0.0264. For CCCTCAAA the value was -0.0915; for TAGCCGCA, -0.0883; for GTCATGGA, -0.146.

As for CGGAAACC, the “PBM E-score” value worked out at 0.425. For ACAAATGC the value was -0.0621; for AGAAAACA, -0.0512.

AAAGGACA: the “PBM E-score” value worked out at 0.0426. For CTCCAATA, the “PBM E-score” value is 0.0386.

CAATTAGG: the “PBM E-score” value was -0.0564. On to ACAAAGGA, for which the “PBM E-score” value was determined as 0.0224. For ATCGGCCG the value was 0.306; for CACCTATA, -0.193. Take AGACGTCG: the “PBM E-score” value is -0.0609. As for GACGGTAA, the “PBM E-score” value is 0.157. In the case of GCCCTGAC, the “PBM E-score” value was -0.263.

In the case of TACACTGA, the “PBM E-score” value was -0.0677. Consider GAAGCGAA, for which the “PBM E-score” value stood at 0.0162. Consider ATGATTAA, for which the “PBM E-score” value is -0.0464. TCACACGA: the “PBM E-score” value is -0.144.

ACAGACTG: the “PBM E-score” value was -0.171. Under ACATTCGT stands -0.168; under AGTATCGG, 0.141. As for ACCTGGCA, the “PBM E-score” value was -0.0336. As to ATCTTATG, the “PBM E-score” value is -0.111. For ACTGGGTA, the “PBM E-score” value is -0.14. For AAATTTCA the value was -0.409; for GTAGACCA, -0.151; for AATATCGT, 0.0315. Consider TGCTAACA, for which the “PBM E-score” value turned out to be 0.0257. Turning to CGTTTCAA, the “PBM E-score” value was -0.0386.

As for ATTGGATA, the “PBM E-score” value is -0.023. Under GATGGCGA stands 0.0994; under AGAATACA, 0.13; under AGGGCAGG, -0.0955.

On to CGGGAGGA, for which the “PBM E-score” value stood at 0.255. Consider CAGGACAG, for which the “PBM E-score” value is -0.0411. On to ATCAAATC, for which the “PBM E-score” value is 0.0855. With AATTGAGA, the “PBM E-score” value was determined as 0.109. Under CCGATTAC stands 0.176; under GAGGCCAA, 0.0103. As to GGGCACCC, the “PBM E-score” value was -0.0509. Take ACCAGTAT: the “PBM E-score” value stood at 0.0888. Consider TACCACTA, for which the “PBM E-score” value was -0.0712. Regarding AAGAAACA, the “PBM E-score” value came out at 0.0916.

For the sequence CATAAGTA, the “PBM E-score” value was -0.261. With CGCCTGAG, the “PBM E-score” value is 0.0467.

On to GAAATAAA, for which the “PBM E-score” value was determined as 0.0582. For ACACACCT the value was 0.104. For CGACCGCG, the “PBM E-score” value is 0.331. Take AATGGTAA: the “PBM E-score” value is 0.0417. For CAAACTGA the value was 0.0275; for CCACCCCA, -0.0682. In the case of CGGACGCA, the “PBM E-score” value is 0.21. On to ATATTACG, for which the “PBM E-score” value came out at 0.116. For CGCCTCGC, the “PBM E-score” value was determined as 0.101. For the sequence CGCCCGTA, the “PBM E-score” value was -0.0283. For ACCACGAG, the “PBM E-score” value is -0.0546. Take AGCTTGTC: the “PBM E-score” value is 0.00669. AATGATCG: the “PBM E-score” value stood at 0.00228.

With ATTTATAG, the “PBM E-score” value was -0.162.

On to ATGGGACA, for which the “PBM E-score” value is 0.0455. For GCACGGCC, the “PBM E-score” value came to 0.21. For ACTATGAT the value was -0.0762; for ACATTAGC, -0.0887; for CATTAGAA, -0.112.

Regarding ACTTACTC, the “PBM E-score” value is -0.131.

Regarding ACTCCCAA, the “PBM E-score” value is -0.169. As for CTCGAAAG, the “PBM E-score” value is -0.094. For CGTTCTAG the value was -0.0323; for CTAGACAG, -0.124; for ACTAGTAC, -0.105. For CAATGACA the value was -0.182; for CTACAGCA, -0.0661; for GAGACCAA, 0.151. AATTAAGA: the “PBM E-score” value was -0.106. For the sequence GATCTTCA, the “PBM E-score” value was determined as 0.0569. Under ACTAAAAA stands 0.119. GCCTTTTA: the “PBM E-score” value was -0.241.

ACGATGAG: the “PBM E-score” value was 0.0497.
